According to ChEMBL document CHEMBL4888484, “Replenishing the malaria drug discovery pipeline: Screening and hit evaluation of the MMV Hit Generation Library 1 (HGL1) against asexual blood stage Plasmodium falciparum ,using a nano luciferase reporter read-out” (2022):
Hit rate of the full screen: of about 150,000 compounds, about 540 (0.36%) showed an effect of 50% or more. The list shows a part of the results.

system: Plasmodium falciparum; assay: Primary screen in NF54 nanoGlo assay, in single point, at 2uM, 72h; a lower Z score goes with more inhibition; assay type: functional, Erythrocyte; settings: timepoint 72 hour

Compound	% Inhibition [%]	Z score
COCCC(=O)N1CCC[C@H](S(=O)(=O)N2CCc3ccccc32)C1	-15	1.92
Cc1noc([C@H]2CCCN(C(=O)c3nc4cccnc4s3)C2)n1	-2	0.32
CCc1occc1C(=O)NCC1CCC(C(=O)N(C)C)O1 (stereo not drawn)	2	-0.31
O=C1N[C@H]2C[C@@H](C(=O)NC[C@H]3O[C@H](CCOc4cc(C5CCCC5)ccc41)CC[C@@H]3O)N(CC1CCCCC1)C2	32	-3.66
CCn1cc(S(=O)(=O)N2CCOc3c(F)cc(F)cc32)cn1	-2	0.31
CCc1noc(C)c1C(=O)N[C@H]1CCS(=O)(=O)C1	-5	0.49
CCC(=O)N1CCc2ccc(OC(CC)C(=O)NCc3ccccc3)cc2C1c1cccc(F)c1 (stereo not drawn)	-7	0.62
CCCCC[C@H](C)NC(=O)c1cncn1-c1cccc(-c2cccnc2)c1	-17	2.09
CC(=O)N1CCCN(C(=O)Cn2ccc3ccccc32)CC1	-12	1.03
CN(C(=O)CN1CCCC1c1ccccc1)C1CCS(=O)(=O)C1 (stereo not drawn)	-7	1.31
O=C(c1cccc(S(=O)(=O)N2CCCCC2)c1)N1CCc2[nH]c3ccc(F)cc3c2C1	-4	0.75
O=C(NCC(F)(F)F)C(=O)N1CCC(Oc2cccc(Br)c2)CC1	-8	0.72
CCn1ccc(CNCCNc2ccncc2C)n1	-3	0.68
N#CC1(C(=O)N2CCCN(C(=O)C3(C#N)CCCC3)CC2)CCCC1	-5	1.12
O=S1(=O)CCN(c2cc(-c3ccccc3F)nc3ccnn23)CC1	-8	1.18
O=C1C[C@H](Nc2ccc3c(c2)OCO3)C(=O)N1	-1	0.25
COCc1ccccc1COC(=O)c1cnn2c1CCCC2	-30	3.1
CCC=C(C)C(=O)Nc1ccc(C(C)(C)C(=O)O)cc1	7	-0.89
COc1ccc(CCNC(=O)[C@H](C)n2nc3c(cc2=O)CCC3)cc1OC	10	-1.32
CN1CCn2cc(S(=O)(=O)Nc3ccc(F)cc3)cc2C1=O	-3	0.55
Cc1cnccc1C(=O)N1CCN(C2CC2)c2ccc(F)cc21	2	-0.33
COc1ccc2c(c1)[C@H](C)N(C(=O)CCn1nnnc1C)CC2	11	-1.5
C[C@H](C(=O)N1CCN(C)CC1)C(C)(F)F	-4	0.66
CN(C)CCNS(=O)(=O)c1c[nH]c2c(Br)cccc12	31	-3.96
O=C(c1ccsc1)N1CCC(F)(C(=O)N2CCCC2)CC1	-10	1.35
CCc1cccc(NCc2ccccc2-c2nnc(-c3ccccc3Cl)o2)c1	-1	0.22
Cc1nc(C)c(C(=O)N[C@@H](C)c2cc(Cl)cc(Cl)c2F)o1	-4	0.75

Compound	% Inhibition [%]	Z score
COc1ccc(-c2noc(-c3c(C)cc(C)n(CC(=O)NCc4ccc(F)cc4)c3=O)n2)cc1	6	-0.85
CC[C@H](C)n1nc(C)c2[nH]c(-c3cnn(-c4ccccc4)c3)nc21	17	-2.1
Cc1cccc(C)c1OCC(O)CNC(=O)NC1CCCC(N(C)C)C1 (stereo not drawn)	-8	1.07
Cc1nc(C(=O)NCc2ccc(N(C)C)c(C)c2)c[nH]1	5	-0.64
CCc1nc(-c2c3n(c(=O)[nH]c2=O)CCCCC3)no1	-10	1.09
COc1cccc(C(=O)N(CC(=O)N2CCN(c3ccc(-c4ccc(Cl)cc4Cl)nn3)CC2)C(C)C)c1	0	-0.03
CC(C)(C)NC(=O)CN1C(=O)[C@]2(CC(=O)Nc3c2cnn3-c2ccccc2)c2ccccc21	-8	0.82
O=C1c2ccccc2[C@H](O)N1Cc1cccs1	-8	1.08
CC1(c2ccc(F)c(F)c2)CC1N1C(=O)NC(C2CC2)C1=O (stereo not drawn)	2	-0.32
COc1ccc(NC(=O)Cc2nc(C)c(C(=O)NCc3ccccc3)s2)cc1Cl	-6	0.77
CCNC(=O)NC(=O)[C@H](C)N(CCC(F)(F)F)C1CCC1	3	-0.4
CC(C)Nc1ncc(CN2CCC(c3[nH]ncc3-c3cccc(F)c3)CC2)cn1	-2	0.33
CC(=O)NC(C)(C)C(=O)NCC1(O)CCC(C(C)(C)C)CC1 (stereo not drawn)	-7	1.28
COC(=O)[C@H](NC(=O)NC1CCCCC1)C(C)C	-7	1
CCCN(CCC)c1ccc(NC(=O)CC)cc1C(=O)O	-7	1.2
CCc1ccc(CN2CCC3(CCC(=O)N(CCc4c[nH]cn4)C3)CC2)nc1	-17	1.92
O=C(Cc1ccc(Cl)cc1F)NCCCc1ccco1	-11	1.53
Cc1csc(CCNC(=O)COc2cccc(C)c2C)n1	-13	1.7
CC(=O)N1CC(C(=O)N[C@H]2CCCc3nn(C)cc32)C1	-2	0.23
CC(C)OCC(O)CN(CC(=O)N1CCc2sccc2C1COc1ccc(F)cc1)C(C)C (stereo not drawn)	-12	1.16
Cc1cc(C[C@H](C)n2cnc3ccncc3c2=O)[nH]n1	-10	1.52
CN(C)C(=NCc1ccn(C2CCCC2)n1)N(C)C	-9	1.4
CCCC(NC(=O)C(C)c1ccc(Cl)s1)c1nnn[nH]1 (stereo not drawn)	-3	0.46
O=C(c1ccc(C[C@@H]2COc3ccccc3C2)nc1)N1CCCCC1	-9	1.26
CCCn1cc(C(=O)N2CCC3(CC2)C(=O)N(C)c2ccccc23)c(C)n1	-3	0.53
O=C(NCc1ccccc1)N1CCO[C@H](c2cc(Cl)cc(Cl)c2)C1	-19	2.46
Cn1cc(S(=O)(=O)NCC(=O)N2CCCC2)c(C2CCCC2)n1	-14	1.44
